Results as given in article PMC5681660, “Reduced hepatitis B and D viral entry using clinically applied drugs as novel inhibitors of the bile acid transporter NTCP” (Scientific Reports, 2017).

Biological target: T1, human NTCP (Homo sapiens, UniProt Q14973)
T1 sequence (Q14973 1-349): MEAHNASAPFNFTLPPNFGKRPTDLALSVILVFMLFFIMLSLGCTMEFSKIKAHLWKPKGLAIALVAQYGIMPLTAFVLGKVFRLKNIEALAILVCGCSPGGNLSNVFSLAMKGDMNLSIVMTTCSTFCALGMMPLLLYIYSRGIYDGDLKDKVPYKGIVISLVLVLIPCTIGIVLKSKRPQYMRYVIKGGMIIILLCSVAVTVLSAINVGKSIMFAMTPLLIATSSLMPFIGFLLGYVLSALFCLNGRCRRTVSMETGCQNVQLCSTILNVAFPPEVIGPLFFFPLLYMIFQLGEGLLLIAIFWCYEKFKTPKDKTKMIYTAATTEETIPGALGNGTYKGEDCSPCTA
Test: Screening taurocholate uptake assay (96-well, [14C]taurocholate, 10 µM drug)
Details: not given

| Compound | %NTCP activity [%] |
| --- | --- |
| COc1cccc(C2(O)CCCCC2CN(C)C)c1.Cl (centres unmarked) [Tramadol hydrochloride] | 92.4969 |
| CNC(C)(C)Cc1ccccc1.CNC(C)(C)Cc1ccccc1.O=S(=O)(O)O [Mephentermine hemisulfate] | 75.9589 |

Same assay, conditions: 10 min, read-out: %NTCP activity

| Compound | remaining activity at 10 µM [%] |
| --- | --- |
| CC(=O)OCC(=O)[C@@]1(OC(C)=O)[C@@H](C)C[C@H]2[C@@H]3C[C@H](F)C4=CC(=O)C=C[C@]4(C)[C@@]3(F)[C@@H](O)C[C@@]21C [Diflorasone Diacetate] | 123 |
| CC(C)(Oc1ccc(CCNC(=O)c2ccc(Cl)cc2)cc1)C(=O)O [Bezafibrate] | 73 |
| CC(=O)Nc1c(I)c(C(=O)N[C@H]2C(O)O[C@H](CO)[C@@H](O)[C@@H]2O)c(I)c(N(C)C(C)=O)c1I (some centres unmarked) [Metrizamide] | 51.5 |
| O=C1CCC(N2C(=O)c3ccccc3C2=O)C(=O)N1 (centres unmarked) [Thalidomide] | 122 |
| C[C@@H]1C[C@@H]([C@H](O)CC2CC(=O)NC(=O)C2)C(=O)[C@@H](C)C1 [Cycloheximide] | 96.3 |
| CN(C)[C@@H]1C(O)=C(C(N)=O)C(=O)[C@@]2(O)C(O)=C3C(=O)c4c(O)cccc4[C@@](C)(O)[C@H]3[C@H](O)[C@@H]12 [Oxytetracycline dihydrate] | 60.1 |
| CN(CCCN1c2ccccc2CCc2ccccc21)CC(=O)c1ccc(Cl)cc1 [Lofepramine] | 115 |
| Nc1nnc(-c2cccc(Cl)c2Cl)c(N)n1 [Lamotrigine] | 123 |
| Cc1cc(C(C)(C)C)c(O)c(C)c1CC1=NCCN1 [Oxymetazoline hydrochloride] | 90.6 |
| Cc1ccc(C)c(OCCCC(C)(C)C(=O)O)c1 [Gemfibrozil] | 113 |
| C=C1C(=O)O[C@H]2[C@H]1CC/C(C)=C/CC[C@@]1(C)O[C@@H]21 [Parthenolide] | 121 |
| CC(C)COCC(CN(Cc1ccccc1)c1ccccc1)N1CCCC1 (centres unmarked) [Bepridil hydrochloride] | 71.5 |
| CCCCC(=O)N(Cc1ccc(-c2ccccc2-c2nnn[nH]2)cc1)[C@H](C(=O)O)C(C)C [Valsartan] | 114 |
| CC(=O)OCC(=O)[C@@]12OC(C)(C)O[C@@H]1C[C@H]1[C@@H]3C[C@H](F)C4=CC(=O)C=C[C@]4(C)[C@@]3(F)[C@@H](O)C[C@@]12C [Fluocinonide] | 92.5 |
| CC(CCc1ccc(O)cc1)NCCc1ccc(O)c(O)c1 (centres unmarked) [Dobutamine hydrochloride] | 70.4 |
| CN1C(=O)OC(C)(C)C1=O [Trimethadione] | 69.7 |
| CC(Oc1c(Cl)cccc1Cl)C1=NCCN1 (centres unmarked) [Lofexidine] | 76.5 |
| COc1cc(NS(=O)(=O)c2ccc(N)cc2)nc(OC)n1 [Sulfadimethoxine] | 103 |

| Compound | remaining activity at 10 µM [%] |
| --- | --- |
| Cc1cc(C(=O)NNCc2ccccc2)no1 [Isocarboxazid] | 58 |
| CCC(=O)[C@@]1(C)[C@H](C)C[C@H]2[C@@H]3CCC4=CC(=O)C=C[C@]4(C)[C@H]3[C@@H](O)C[C@@]21C [Rimexolone] | 52.1 |
| Nc1nc(NC2CC2)c2ncn([C@H]3C=C[C@@H](CO)C3)c2n1 [Abacavir Sulfate] | 75.4 |
| NC(=O)c1cccnc1 [Nicotinamide] | 140 |
| C[C@H](CCC(=O)O)[C@H]1CC[C@H]2[C@@H]3C(=O)C[C@@H]4CC(=O)CC[C@]4(C)[C@H]3CC(=O)[C@]12C [Dehydrocholic acid] | 70.1 |
| CCC(=O)O[C@@](Cc1ccccc1)(c1ccccc1)[C@@H](C)CN(C)C [Levopropoxyphene napsylate] | 75.5 |
| CCCC1O[C@@H]2C[C@H]3[C@@H]4CCC5=CC(=O)C=C[C@]5(C)[C@H]4[C@@H](O)C[C@]3(C)[C@]2(C(=O)CO)O1 (some centres unmarked) [Budesonide] | 70.6 |
| CC(=O)OCC(=O)[C@@]1(O)[C@H](C)C[C@H]2[C@@H]3CCC4=CC(=O)C=C[C@]4(C)[C@@]3(F)[C@@H](O)C[C@@]21C [Dexamethasone acetate] | 88.6 |
| COc1cc(C(=O)NC2CCCNC2)cc(OC)c1OC (centres unmarked) [Troxipide] | 101 |
| CC(c1cc2ccccc2s1)N(O)C(N)=O (centres unmarked) [Zileuton] | 80.8 |
| Cn1cc[nH]c1=S [Methimazole] | 98.3 |
| NCc1ccc(S(N)(=O)=O)cc1 [Mafenide hydrochloride] | 90.8 |
| Nc1ccc(S(=O)(=O)Nc2ccccn2)cc1 [Sulfapyridine] | 90.7 |
| O=C1CN2Cc3c(ccc(Cl)c3Cl)N=C2N1 [Anagrelide] | 76.7 |
| CCC(=O)O[C@]1(C(=O)SCF)[C@H](C)C[C@H]2[C@@H]3C[C@H](F)C4=CC(=O)C=C[C@]4(C)[C@@]3(F)[C@@H](O)C[C@@]21C [Fluticasone propionate] | 66.1 |
| COc1c2occc2c(OC)c2c(=O)cc(C)oc12 [Khellin] | 51.5 |
| CCC(C)(C)c1ccc(CC(C)CN2C[C@@H](C)O[C@@H](C)C2)cc1 (some centres unmarked) [Amorolfine hydrochloride] | 78 |
| CC(C(=O)O)c1ccc(N2Cc3ccccc3C2=O)cc1 (centres unmarked) [Indoprofen] | 116 |

Same assay, conditions: Prestwick library screen, 10 µM drug, [14C]taurocholate uptake

| Compound | %NTCP activity [%] |
| --- | --- |
| Cl.O=C(OCC(O)CO)c1ccccc1Nc1ccnc2cc(Cl)ccc12 (centres unmarked) [Glafenine hydrochloride] | 94.297 |
| CN(C)CCCSC(=N)N.Cl.Cl [Dimaprit dihydrochloride] | 99.1906 |

Same assay, conditions: screen, 10 µM drug, [14C]taurocholate uptake

| Compound | %NTCP activity [%] |
| --- | --- |
| CC(CN(C)C)CN1c2ccccc2Sc2ccccc21.CC(CN(C)C)CN1c2ccccc2Sc2ccccc21.O=C(O)C(O)C(O)C(=O)O (centres unmarked) [Trimeprazine tartrate] | 81.6261 |
| N[C@@H](C(=O)N[C@@H]1C(=O)N2C(C(=O)O)=C(Cl)CS[C@H]12)c1ccccc1.O [Cefaclor hydrate] | 50.6241 |
| CNC(C)CCC=C(C)C.CNC(C)CCC=C(C)C.O=C(O)[C@@H](O)[C@H](O)[C@H](O)[C@@H](O)C(=O)O [Isometheptene mucate] | 90.1978 |

Biological target: T1, human NTCP
Test: Screening fluorescent competitive Myrcludex B-FITC binding assay (96-well, 10 µM drug)
Details: 0.5 h, read-out: %NTCP binding

| Compound | remaining activity at 10 µM [%] |
| --- | --- |
| CC(=O)OCC(=O)[C@@]1(OC(C)=O)[C@@H](C)C[C@H]2[C@@H]3C[C@H](F)C4=CC(=O)C=C[C@]4(C)[C@@]3(F)[C@@H](O)C[C@@]21C [Diflorasone Diacetate] | 75.1 |
| CC(C)(Oc1ccc(CCNC(=O)c2ccc(Cl)cc2)cc1)C(=O)O [Bezafibrate] | 65 |
| CC(=O)Nc1c(I)c(C(=O)N[C@H]2C(O)O[C@H](CO)[C@@H](O)[C@@H]2O)c(I)c(N(C)C(C)=O)c1I (some centres unmarked) [Metrizamide] | 63.2 |
| O=C1CCC(N2C(=O)c3ccccc3C2=O)C(=O)N1 (centres unmarked) [Thalidomide] | 85.3 |
| C[C@@H]1C[C@@H]([C@H](O)CC2CC(=O)NC(=O)C2)C(=O)[C@@H](C)C1 [Cycloheximide] | 85.1 |
| CN(C)[C@@H]1C(O)=C(C(N)=O)C(=O)[C@@]2(O)C(O)=C3C(=O)c4c(O)cccc4[C@@](C)(O)[C@H]3[C@H](O)[C@@H]12 [Oxytetracycline dihydrate] | 75.4 |
| CN(CCCN1c2ccccc2CCc2ccccc21)CC(=O)c1ccc(Cl)cc1 [Lofepramine] | 44.7 |
| Nc1nnc(-c2cccc(Cl)c2Cl)c(N)n1 [Lamotrigine] | 94.5 |
| Cc1cc(C(C)(C)C)c(O)c(C)c1CC1=NCCN1 [Oxymetazoline hydrochloride] | 77.4 |
| Cc1ccc(C)c(OCCCC(C)(C)C(=O)O)c1 [Gemfibrozil] | 58.1 |
| C=C1C(=O)O[C@H]2[C@H]1CC/C(C)=C/CC[C@@]1(C)O[C@@H]21 [Parthenolide] | 31.8 |
| CC(C)COCC(CN(Cc1ccccc1)c1ccccc1)N1CCCC1 (centres unmarked) [Bepridil hydrochloride] | 50.2 |
| CCCCC(=O)N(Cc1ccc(-c2ccccc2-c2nnn[nH]2)cc1)[C@H](C(=O)O)C(C)C [Valsartan] | 78 |
| CC(=O)OCC(=O)[C@@]12OC(C)(C)O[C@@H]1C[C@H]1[C@@H]3C[C@H](F)C4=CC(=O)C=C[C@]4(C)[C@@]3(F)[C@@H](O)C[C@@]12C [Fluocinonide] | 78.9 |
| CC(CCc1ccc(O)cc1)NCCc1ccc(O)c(O)c1 (centres unmarked) [Dobutamine hydrochloride] | 91 |
| CN1C(=O)OC(C)(C)C1=O [Trimethadione] | 76.9 |
| CC(Oc1c(Cl)cccc1Cl)C1=NCCN1 (centres unmarked) [Lofexidine] | 81.5 |
| COc1cc(NS(=O)(=O)c2ccc(N)cc2)nc(OC)n1 [Sulfadimethoxine] | 77.1 |

| Compound | remaining activity at 10 µM [%] |
| --- | --- |
| Cc1cc(C(=O)NNCc2ccccc2)no1 [Isocarboxazid] | 76.1 |
| CCC(=O)[C@@]1(C)[C@H](C)C[C@H]2[C@@H]3CCC4=CC(=O)C=C[C@]4(C)[C@H]3[C@@H](O)C[C@@]21C [Rimexolone] | 69 |
| Nc1nc(NC2CC2)c2ncn([C@H]3C=C[C@@H](CO)C3)c2n1 [Abacavir Sulfate] | 125 |
| NC(=O)c1cccnc1 [Nicotinamide] | 80.1 |
| C[C@H](CCC(=O)O)[C@H]1CC[C@H]2[C@@H]3C(=O)C[C@@H]4CC(=O)CC[C@]4(C)[C@H]3CC(=O)[C@]12C [Dehydrocholic acid] | 85.6 |
| CCC(=O)O[C@@](Cc1ccccc1)(c1ccccc1)[C@@H](C)CN(C)C [Levopropoxyphene napsylate] | 87.9 |
| CCCC1O[C@@H]2C[C@H]3[C@@H]4CCC5=CC(=O)C=C[C@]5(C)[C@H]4[C@@H](O)C[C@]3(C)[C@]2(C(=O)CO)O1 (some centres unmarked) [Budesonide] | 81.7 |
| CC(=O)OCC(=O)[C@@]1(O)[C@H](C)C[C@H]2[C@@H]3CCC4=CC(=O)C=C[C@]4(C)[C@@]3(F)[C@@H](O)C[C@@]21C [Dexamethasone acetate] | 75 |
| COc1cc(C(=O)NC2CCCNC2)cc(OC)c1OC (centres unmarked) [Troxipide] | 83.3 |
| CC(c1cc2ccccc2s1)N(O)C(N)=O (centres unmarked) [Zileuton] | 82.9 |
| Cn1cc[nH]c1=S [Methimazole] | 107 |
| NCc1ccc(S(N)(=O)=O)cc1 [Mafenide hydrochloride] | 51.2 |
| Nc1ccc(S(=O)(=O)Nc2ccccn2)cc1 [Sulfapyridine] | 89.6 |
| O=C1CN2Cc3c(ccc(Cl)c3Cl)N=C2N1 [Anagrelide] | 70.1 |
| CCC(=O)O[C@]1(C(=O)SCF)[C@H](C)C[C@H]2[C@@H]3C[C@H](F)C4=CC(=O)C=C[C@]4(C)[C@@]3(F)[C@@H](O)C[C@@]21C [Fluticasone propionate] | 113 |
| COc1c2occc2c(OC)c2c(=O)cc(C)oc12 [Khellin] | 85.8 |
| CCC(C)(C)c1ccc(CC(C)CN2C[C@@H](C)O[C@@H](C)C2)cc1 (some centres unmarked) [Amorolfine hydrochloride] | 89.3 |
| CC(C(=O)O)c1ccc(N2Cc3ccccc3C2=O)cc1 (centres unmarked) [Indoprofen] | 114 |

Same assay, conditions: Prestwick library screen, 10 µM drug, Myrcludex B-FITC binding

| Compound | %NTCP binding [%] |
| --- | --- |
| Cl.O=C(OCC(O)CO)c1ccccc1Nc1ccnc2cc(Cl)ccc12 (centres unmarked) [Glafenine hydrochloride] | 91.2482 |
| CN(C)CCCSC(=N)N.Cl.Cl [Dimaprit dihydrochloride] | 113.568 |

Same assay, conditions: Prestwick library screen, Myrcludex B-FITC binding, 10 µM drug

| Compound | %NTCP binding [%] |
| --- | --- |
| CNC(C)(C)Cc1ccccc1.CNC(C)(C)Cc1ccccc1.O=S(=O)(O)O [Mephentermine hemisulfate] | 99.8606 |

Same assay, conditions: screen, 10 µM drug, Myrcludex B-FITC binding

| Compound | %NTCP binding [%] |
| --- | --- |
| CC(CN(C)C)CN1c2ccccc2Sc2ccccc21.CC(CN(C)C)CN1c2ccccc2Sc2ccccc21.O=C(O)C(O)C(O)C(=O)O (centres unmarked) [Trimeprazine tartrate] | 89.6044 |
| COc1cccc(C2(O)CCCCC2CN(C)C)c1.Cl (centres unmarked) [Tramadol hydrochloride] | 75.3752 |
| N[C@@H](C(=O)N[C@@H]1C(=O)N2C(C(=O)O)=C(Cl)CS[C@H]12)c1ccccc1.O [Cefaclor hydrate] | 77.3075 |
| CNC(C)CCC=C(C)C.CNC(C)CCC=C(C)C.O=C(O)[C@@H](O)[C@H](O)[C@H](O)[C@@H](O)C(=O)O [Isometheptene mucate] | 88.0132 |

Where a name gives a salt, the structure may show the parent alone.
